From PubChem BioAssay AID1345082 (National Center for Advancing Translational Sciences (NCATS), 2018)
Screen size: about 94,000 compounds; about 4,000 (4.3%) were called active. Inconclusive results, whose numbers are uncertain, are shown with a selection of clear calls. The call rests on the fitted dose curve; in most records, active means well fitted inhibition curve with a large enough effect; inconclusive means small, poorly fitted or top-dose-only effect; inactive means no such curve, though single readings can be large or run the other way. A potency beside an inconclusive call is a rough fit, not a confirmed value.
Potency means the concentration at half of the fitted maximal effect; tags describe the fitted curve by direction and shape.

Assay: Cytotoxic Profiling in NIH 3T3 Cell Line of Diverse Libraries Using Quantitative High-Throughput Screening; further: nearly all actives have a fitted effect of over 55% in size
Details: NIH 3T3 viability, CellTiter-Glo ATP luminescence, 48-72 h; series mostly up to 96.7 µM
How it was run: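 ATP-dependent luminescence (CellTiter-Glo) served as the viability signal for NIH 3T3 cells treated with compound for 48 or 72 hr at 37 °C.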
For `O=C1NCCCN1C1CCN(Cc2ccccn2)CC1`, the Potency was “inactive”.
For `COc1ccc(C(=O)N2CCOC[C@H](Oc3cccnc3)C2)cc1`, the Potency was “inactive”.
For `CCCN(CC1CCCO1)C(=O)c1csc2nc(-c3cccc(C(F)(F)F)c3)cn12` (stereo not drawn), the Potency was inconclusive: 35.5 µM [inhibitor, partial curve, poor fit].
With `c1ccc(CN[C@@H]2C[C@@H]3CO[C@H](c4ccccc4)C[C@@H]3C2)cc1` the Potency was “inactive”.
For `CNC(=O)c1cc(C2CC2)nc2c1c(C1CCN(C(=O)OC)C1)nn2C` (stereo not drawn), the Potency was inconclusive: 56.2 µM [inhibitor, partial curve, poor fit].
With `CC#CCn1cc2c3c(cccc31)[C@H](CC(C)C)N[C@H](C(=O)N1CCN(C(C)=O)CC1)C2` the Potency was inconclusive: 126 µM [inhibitor, single point].
With `COCCNC(=O)CC1=CSC2=NC(C)=C(C(=O)OC(C)C)C(c3ccc([N+](=O)[O-])cc3)N12` (stereo not drawn) the Potency was inconclusive: 50.1 µM [inhibitor, partial curve, poor fit].
In the case of `CCCNC(=O)Cc1ccc(N(Cc2ccc(OC)cc2)C(=O)c2ccco2)cc1`, the Potency is reported as inconclusive: 44.7 µM [inhibitor, partial curve].
In the case of `COc1ccc(-c2cc(N3CCCN(C(=O)c4ccc(C)c(F)c4)CC3)n[nH]2)cc1`, the Potency is reported as “inactive”.
For `Cc1ccc(CN2CCCCCNC(=O)[C@@H]3CCC[C@@H]32)s1`, the Potency was inconclusive: 50.1 µM [inhibitor, partial curve, poor fit].
With `CC(=O)Nc1ccc(-c2ccc(=O)n3c2[C@@H]2C[C@@H](CN(S(=O)(=O)c4ccc(Cl)cc4)C2)C3)cc1` the Potency was “inactive”.
In the case of `COc1cc(OC)cc(C(=O)N2CCC[C@H]2c2nc(-c3ccc(OC)c(OC)c3)no2)c1`, the Potency is reported as inconclusive: 39.8 µM [inhibitor, partial curve, poor fit].
For `COc1cc(CC(=O)N2CCC3(CC2)CC(O)CCO3)cc(OC)c1` (stereo not drawn), the Potency was inconclusive: 79.4 µM [inhibitor, partial curve, poor fit].
With `Cc1noc(C)c1-c1cnc2[nH]cc(CC(N)=O)c2c1` the Potency was active: 10 µM.
In the case of `COc1cccc(NC(=O)[C@@H]2OCCN(C)[C@H]2c2ccccc2)c1`, the Potency is reported as “inactive”.
In the case of `COC1CCOC2(CCN(C(=O)NCc3ccc(C)cc3)CC2)C1` (stereo not drawn), the Potency is reported as “inactive”.
With `COc1ccc(NC(=O)c2ccc3c(c2)N(C)C2CCCCCN2C3=O)cc1F` (stereo not drawn) the Potency was inconclusive: 50.1 µM [inhibitor, partial curve, poor fit].
For `Cc1ccsc1CN1C[C@@H]2C(C(=O)N3CCOCC3)=NO[C@@H]2C1`, the Potency was inconclusive: 112 µM [inhibitor, single point].
With `COC(=O)NC1CCN(c2ccc3nnc(-c4ccccc4)n3n2)C1` (stereo not drawn) the Potency was inconclusive: 50.1 µM [inhibitor, partial curve, poor fit].
For `O=C1NCC2(CCN([S+](=O)([O-])c3ccccc3)CC2)Oc2ccccc21`, the Potency was inconclusive: 44.7 µM [inhibitor, partial curve, poor fit].
With `COc1ccccc1Nc1ccnc(N2CCC(N[S+](=O)([O-])c3cccs3)CC2)n1` the Potency was active: 31.6 µM.
In the case of `CC(C)(Oc1nn(CC2CCOCC2)c2ccccc12)C(=O)NCc1ccncc1`, the Potency is reported as inconclusive: 112 µM [inhibitor, single point].
With `O=C(NC[C@H]1O[C@@H]2C[C@@H](CC(=O)N3CCOCC3)O[C@@H]2[C@@H]1O)Nc1cccnc1` the Potency was “inactive”.
In the case of `CN(C)c1ccc(-c2ccnc(N[C@H]3CO[C@H]4[C@@H]3OC[C@H]4OC(=O)Nc3cccc(C(F)(F)F)c3)n2)cc1`, the Potency is reported as inconclusive: 31.6 µM [inhibitor, full curve].
For `Cc1cc(OCCN2CCOCC2)c(C)c2c1CC[C@@H]([C@H](C)C(=O)NCc1cccnc1)C2`, the Potency was inconclusive: 50.1 µM [inhibitor, partial curve, poor fit].
With `COc1ccccc1Cn1c(-c2ccc(F)cc2)nc(C)c(CCO)c1=O` the Potency was inconclusive: 50.1 µM [inhibitor, partial curve, poor fit].
For `COCCNC(=O)C1CCN(c2nccc(Nc3ccccc3F)n2)CC1`, the Potency was inconclusive: 44.7 µM [inhibitor, partial curve, poor fit].
In the case of `c1cncc(-c2cc(-c3cccc(N4CCOCC4)c3)cn3cncc23)c1`, the Potency is reported as inconclusive: 56.2 µM [inhibitor, partial curve, poor fit].
In the case of `COc1ccc(Cn2c(=O)c(C(=O)Nc3ccccc3Cl)nc3cccnc32)cc1`, the Potency is reported as “inactive”.
With `O=C(CCC1CCN(S(=O)(=O)c2ccccc2)CC1)NC1CCCCCC1` the Potency was inconclusive: 50.1 µM [inhibitor, partial curve, poor fit].
With `COc1ccc(-c2ccc(C(=O)NCc3ccccc3)cc2)nn1` the Potency was “inactive”.
With `Cc1ccc(S(=O)(=O)N2C[C@@H](F)C[C@H]2C(=O)N2CCc3ccccc3C2)cc1Cl` the Potency was inconclusive: 44.7 µM [inhibitor, partial curve, poor fit].
In the case of `CN1CCC2(C1)CN(Cc1ccccc1)c1ccc(C(=O)NCc3cccs3)cc12` (stereo not drawn), the Potency is reported as active: 28.2 µM.
With `O=C(CNC(=O)c1cccc(-c2ccsc2)c1)NCc1ccccc1F` the Potency was “inactive”.
In the case of `Cn1ncc(N2CCC(NC(=O)Cc3ccc(F)cc3)CC2)cc1=O`, the Potency is reported as “inactive”.
For `Cc1ccc(NC(=O)Cn2c(C)cc3nc4n(c(=O)c32)CCCCC4)cc1Cl`, the Potency was active: 39.8 µM.
For `CC(C)(C)c1ccc(-c2cc(C[C@H]3CNCC[C@H]3CC(=O)N3CCOCC3)no2)cc1`, the Potency was inconclusive: 44.7 µM [inhibitor, full curve, poor fit].
With `CC(C)Cn1cc2c3c(cccc31)CNCC2` the Potency was inconclusive: 50.1 µM [inhibitor, partial curve, poor fit].
For `COc1ccc(CCNC(=O)c2nc3sccn3c2-c2ccc(C(F)(F)F)cc2)cc1`, the Potency was inconclusive: 50.1 µM [inhibitor, partial curve, poor fit].
In the case of `COc1cccc(CNC(=O)C2CCCN(c3nccc(Nc4ccccc4OC)n3)C2)c1` (stereo not drawn), the Potency is reported as active: 31.6 µM.
With `COc1ccccc1CN1CCC2(Cc3ccccc3CNC2=O)C1` (stereo not drawn) the Potency was “inactive”.
For `Cc1ccc(C(=O)N(CC(C)C)CC2CN(C(=O)c3ccc(Cl)c(Cl)c3)CCO2)cc1` (stereo not drawn), the Potency was inconclusive: 50.1 µM [inhibitor, partial curve, poor fit].
With `COc1ncccc1-c1ccnc(-c2nnc(C)n2Cc2ccccc2)c1` the Potency was inconclusive: 56.2 µM [inhibitor, partial curve, poor fit].
For `OC1CN(Cc2ccccc2)CCN(c2nc(-c3ccccc3)no2)C1` (stereo not drawn), the Potency was “inactive”.
For `O=C(c1cnccn1)N1CCN(c2cc(-c3ccc(Cl)cc3)[nH]n2)CC1`, the Potency was inconclusive: 20 µM [inhibitor, full curve, poor fit].
In the case of `c1cncc(-c2cnc3n[nH]c(-c4ccc5c(c4)OCO5)c3n2)c1`, the Potency is reported as inconclusive: 17.8 µM [inhibitor, partial curve, poor fit].
In the case of `COCCN1C(=O)CCC2(C(=O)NCCCc3ccccc3)CCCC=C12` (stereo not drawn), the Potency is reported as “inactive”.
For `Fc1ccc(CN2CCC3(CC(Cc4ccccc4)=NO3)C2)cc1` (stereo not drawn), the Potency was inconclusive: 56.2 µM [inhibitor, partial curve, poor fit].
For `C[S+](=O)([O-])c1cccc(Nc2n[nH]c(C(O)c3ccccc3)n2)c1` (stereo not drawn), the Potency was inconclusive: 10 µM [inhibitor, full curve, poor fit].
With `O=C(C1CCCC1)N1CCN(c2ccnc3ccnn23)CC1` the Potency was “inactive”.
In the case of `COC(=O)[C@@H]1Cc2nc[nH]c2CN1C(=O)c1ccc(-c2ccccc2)cc1`, the Potency is reported as inconclusive: 79.4 µM [inhibitor, partial curve].
With `Cc1nnc(-c2cc(-c3ccsc3)ccn2)n1-c1ccccc1` the Potency was inconclusive: 89.1 µM [inhibitor, partial curve, poor fit].
With `CC(C)(C)C(=O)N1CC[C@@H](CC(=O)O)[C@@H](CCN2CCN(c3cccc(C(F)(F)F)c3)CC2)C1` the Potency was inconclusive: 50.1 µM [inhibitor, partial curve, poor fit].
With `Cc1nn(-c2ccccc2)c2c1C(C(C)C)N(C1CCCN(C(=O)Cc3ccc(F)cc3)C1)C2=O` (stereo not drawn) the Potency was inconclusive: 14.1 µM [inhibitor, full curve, poor fit].
For `CN1CCN(Cc2nnc(C(=O)N3CCC[C@@H]3C(c3ccccc3)c3ccccc3)n2-c2ccccc2)CC1`, the Potency was inconclusive: 50.1 µM [inhibitor, partial curve, poor fit].
In the case of `CS(=O)(=O)c1ccc(CN2CCOC[C@H]2c2ncc(-c3ccc(Cl)cc3)[nH]2)cc1`, the Potency is reported as inconclusive: 100 µM [inhibitor, partial curve, poor fit].
With `COc1ccccc1CCC(=O)N1CCC2(CC1)NC(=O)N(c1ccccc1)N2` the Potency was inconclusive: 22.4 µM [inhibitor, full curve].
With `O=c1c2nc(-c3ccc(F)cc3)ccc2ncn1Cc1ccccn1` the Potency was inconclusive: 89.1 µM [inhibitor, partial curve].
With `CCC(C)NC(=O)C(NC(=O)c1cccs1)C1CCN(C(=O)c2cccs2)CC1` (stereo not drawn) the Potency was “inactive”.
In the case of `COCCn1c(C)nnc1-c1cc(Nc2ccccc2)ccn1`, the Potency is reported as inconclusive: 112 µM [inhibitor, single point].
In the case of `O=C1[C@@H]2C[C@@H](CN2Cc2nccs2)Oc2ccccc2N1CC1CC1`, the Potency is reported as inconclusive: 89.1 µM [inhibitor, partial curve].
In the case of `CC(C)CCNC(=O)c1cnc2n1CCN(Cc1ccc3[nH]ccc3c1)CC2`, the Potency is reported as inconclusive: 100 µM [inhibitor, partial curve].
With `COc1ccc(-c2noc([C@@H]3CCCN3C(=O)c3cccc(C)c3)n2)cc1` the Potency was inconclusive: 50.1 µM [inhibitor, partial curve, poor fit].
